Source: PubChem BioAssay AID1768 (National Center for Advancing Translational Sciences (NCATS), 2009)
Out of some 270,000 compounds screened, about 620 (0.23%) were called active. This list was built around the results that the source calls inconclusive (neither active nor inactive); the mix of calls is not that of the screen. Calls follow the shape of the dose curve; as a rule, active = well fitted inhibition curve with a large enough effect in the polarisation, with a control signal flat (not every such curve was filed as active); inconclusive = small, poorly fitted or top-dose-only effect, or effect the other way, or a change in a side signal; inactive = no such curve, though single readings can be large or run the other way; the % refers to the polarisation. Potencies beside an inconclusive call are fits to weak or partial responses and may not hold up. A note “side channel” means that the fit belongs to a control or component signal, not to the main read-out.

The compounds below were run against Menin (Homo sapiens) (UniProt O00255) (assay: qHTS Assay for Inhibitors Targeting the Menin-MLL Interaction in MLL Related Leukemias: Competition With Texas Red Labeled MLL-derived Mutant Peptide). Settings: fluorescence polarization; FP activity change, negative = inhibition: at 61.6 µM (top of the series).
UniProt O00255, sequence (O00255 whole entry, looked up): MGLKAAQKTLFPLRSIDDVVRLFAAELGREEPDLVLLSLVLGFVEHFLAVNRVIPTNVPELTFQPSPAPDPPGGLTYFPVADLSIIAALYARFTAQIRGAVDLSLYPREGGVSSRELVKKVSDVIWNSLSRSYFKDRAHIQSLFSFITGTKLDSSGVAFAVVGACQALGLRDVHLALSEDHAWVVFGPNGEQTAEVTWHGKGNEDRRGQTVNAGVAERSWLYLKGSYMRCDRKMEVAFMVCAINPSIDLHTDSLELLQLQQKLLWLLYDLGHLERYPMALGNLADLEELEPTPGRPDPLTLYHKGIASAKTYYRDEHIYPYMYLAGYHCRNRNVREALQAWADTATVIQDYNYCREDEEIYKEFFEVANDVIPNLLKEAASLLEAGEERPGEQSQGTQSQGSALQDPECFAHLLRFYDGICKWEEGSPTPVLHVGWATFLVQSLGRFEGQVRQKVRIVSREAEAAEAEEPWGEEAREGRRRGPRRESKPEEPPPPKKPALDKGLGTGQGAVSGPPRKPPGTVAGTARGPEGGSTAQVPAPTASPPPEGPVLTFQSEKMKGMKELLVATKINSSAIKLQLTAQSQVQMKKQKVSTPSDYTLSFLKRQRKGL

For FP activity change, negative = inhibition in this document: % of control where 0% means no effect.
Potency is read from the fitted curve at half-maximal effect; tags tell the direction and shape of the fitted curve or compound fluorescence and quenching.

FP activity change, negative = inhibition, inactive:
CCCN(Cc1cc2cc(OC)ccc2[nH]c1=O)C(=O)c1ccncc1 -1.22%, C=CCN1C(=O)C(O)(CC(=O)c2ccccc2)c2ccccc21 (stereo not given) -0.209%, Cc1ccc(/C=C2/SC(=S)N(CCC(=O)NCCCN3CCOCC3)C2=O)cc1 -14.8%, O=C(Nc1ccccn1)c1ccc(Br)c(S(=O)(=O)N2CCCC2)c1 15.2%, COc1ccc2[nH]c(=O)c(CN(Cc3cccs3)Cc3nnnn3C(C)(C)C)cc2c1 0.428%, C#CCn1c(=NC(=O)c2cc(Cl)sc2Cl)sc2cc(S(N)(=O)=O)ccc21 -4.59%, COC(=O)CCCCCNc1ccc(C(=O)OC)cc1N -19.6%, Cc1ccccc1-n1nnnc1SCc1cc(=O)n2ccsc2n1 0.748%, O=C(COC(=O)c1ccccc1Cl)NC(=O)NCc1ccccc1 -0.532%, O=C(O)CN1C(=O)/C(=C/c2cccc(Cl)c2)Oc2ccccc21 33.4%, c1ccc(C(c2nnnn2C2CCCC2)N2CCCCCC2)nc1 (stereo not given) -7.45% [at 11.7 µM], CC[C@]1(O)C[C@H]2CN(CCc3c([nH]c4ccccc34)[C@@](C(=O)OC)(c3cc4c(cc3OC)N(C=O)[C@H]3[C@@](O)(C(=O)OC)[C@H](OC(C)=O)[C@]5(CC)C=CCN6CC[C@]43[C@@H]65)C2)C1 -5.03%, O=c1c(=Nc2ccccc2O)c(=O)c2ccccc12 9.94%

Potency, inconclusive:
C=CCNC(=O)C1CC(=O)N(c2ccc(OCC(=O)Nc3ccc(Cl)c(C(F)(F)F)c3)cc2)C1 (stereo not given) 31.6 µM [fluorescent, side channel, single point], COc1cc2c(cc1NC(=O)COC(=O)/C=C/c1ccccc1)oc1ccccc12 25.1 µM [inhibitor, single point], OC(CC#CCN1CCCCC1)(c1ccccc1)c1ccccc1 10 µM [inhibitor, partial curve], Cc1ccc(OCC(=O)Nc2ccc(N3CCN(S(C)(=O)=O)CC3)cc2)cc1 20 µM [quencher, side channel, partial curve], c1ccc(-c2csc3ncnc(N4CCN(Cc5ccc6c(c5)OCO6)CC4)c23)cc1 7.94 µM [fluorescent, side channel, partial curve], COc1ccc(CNC(=O)C(C)Sc2ccc(C)cc2)cc1 (stereo not given) 31.6 µM [fluorescent, side channel, partial curve], Cc1cc2cc(CNC(=O)Nc3ccccc3)ccc2n1C 20 µM [inhibitor, partial curve], CCCn1c(SCC(=O)N2N=C3/C(=C/c4ccc(OC)cc4)CCCC3C2c2ccc(OC)cc2)n[nH]c1=O (stereo not given) 3.55 µM [fluorescent, side channel, full curve, poor fit], CCc1ccc(N=CC2=C(O)CC(c3ccco3)CC2=O)cc1 (stereo not given) 35.5 µM [inhibitor, single point], Cc1ccc(S(=O)(=O)C(C#N)c2nc3ccccc3nc2N2CCCC2)cc1 (stereo not given) 25.1 µM [quencher, side channel, single point], CCOc1ccc(NC(=O)Cn2cc(C(=O)c3ccco3)c3ccccc32)cc1 25.1 µM [quencher, side channel, partial curve], Clc1cccc(C=NC=Nc2cccc(Cl)c2)c1 20 µM [inhibitor, single point], CCOC(=O)C1=C(C)N=c2s/c(=C/c3ccc(OCC(=O)O)cc3)c(=O)n2C1c1ccc(SC)cc1 (stereo not given) 15.8 µM [quencher, side channel, partial curve], O=C(COc1cccc2ccccc12)Nc1nc2ccccc2[nH]1 25.1 µM [quencher, side channel, single point], COc1cc(/C=C2\C(=N)N3N=C(S(C)(=O)=O)SC3=NC2=O)ccc1OS(=O)(=O)c1ccc(C)cc1 3.16 µM [quencher, side channel, full curve], CC(C)(C)NC(=O)CCN(/N=C/c1ccccc1F)C1=NS(=O)(=O)c2ccccc21 31.6 µM [inhibitor, partial curve], Cc1cccc(NC2SC(=O)N(c3ccccc3)C2=O)c1 (stereo not given) 31.6 µM [inhibitor, single point], Fc1ccc(CNc2nc(-c3ccccc3)nc3ccccc23)cc1 12.6 µM [quencher, side channel, partial curve], O=C1CC(/C=C/c2ccccc2)=Nc2ccccc2N1 39.8 µM [fluorescent, side channel, single point], N#Cc1c(C(F)(F)F)cc(-c2ccccc2Cl)[nH]c1=O 31.6 µM [quencher, side channel, single point], O=C(Nc1ccccc1C(=O)Nc1ccccc1)c1cccs1 39.8 µM [inhibitor, single point], O=C1CCCC2=C1C(c1ccc(O)c(O)c1)c1c(ccc3ncccc13)N2 (stereo not given) 7.08 µM [quencher, full curve], C/C(=N/Nc1ccc([N+](=O)[O-])cc1)c1ccc(C)cc1C 14.1 µM [quencher, side channel, partial curve], CCCCOC(=O)CSC1=C(C#N)C(c2cccnc2)C(C(=O)OCC)=C(c2ccccc2)N1 (stereo not given) 12.6 µM [fluorescent, side channel, partial curve], CCCc1cc(C(=O)Nc2nccs2)cs1 25.1 µM [quencher, side channel, single point], Nc1nc(-c2ccc(NC(=O)c3ccco3)cc2)cs1 20 µM [quencher, side channel, partial curve], COc1ccccc1N(Cc1ccccc1)S(=O)(=O)c1cc(C(=O)O)ccc1Cl 22.4 µM [quencher, side channel, partial curve], COc1ccc(CNC(=O)c2cccc3c2C(=O)N(Cc2cccnc2)C3)cc1 39.8 µM [inhibitor, single point], COc1ccc(/C=C/C(=O)Nc2ccccc2C(=O)O)cc1 31.6 µM [quencher, side channel, single point], CC(=O)Nc1sc(/C(C#N)=C/c2ccc(Cl)c(Cl)c2)nc1-c1ccc(C)cc1 31.6 µM [fluorescent, side channel, partial curve], COc1ccc(OC)c(NC(=O)c2cccc(NC(=O)c3ccccc3)c2)c1 28.2 µM [quencher, side channel, single point], Cc1ccc(-c2n[nH]c(=O)c3ccccc23)cc1S(=O)(=O)Nc1ccccc1 11.2 µM [inhibitor, partial curve], Nc1c(-c2ccccc2)cnc2c(-c3ccccc3)cnn12 12.6 µM [quencher, side channel, partial curve], CCn1c(=O)c(C(=O)NNC(=O)c2ccccc2Cl)c(O)c2ccccc21 35.5 µM [quencher, side channel, single point], COc1ccccc1/C=C1\SC(=S)N(CC(=O)Nc2nnc(C)s2)C1=O 39.8 µM [inhibitor, single point], Cc1ccc(CNS(=O)(=O)NCc2cccs2)cc1 31.6 µM [inhibitor, partial curve], CCOc1ccc(CN2CCN(Cc3c[nH]c4ccccc34)CC2)cc1 39.8 µM [inhibitor, single point], COc1ccc(Br)cc1C(=O)NC(=S)Nc1cc(-c2nc3ccccc3[nH]2)ccc1C 39.8 µM [inhibitor, single point], CC(=O)n1cc(/C=N/NC(=O)c2ccccc2O)c2ccccc21 28.2 µM [quencher, side channel, partial curve], CC1(COc2ccc(C[C@H]3SC(=O)NC3=O)cc2)CCCCC1 35.5 µM [quencher, side channel, partial curve], Fc1ccc(C2CCNCC2COc2ccc3c(c2)OCO3)cc1 (stereo not given) 15.8 µM [fluorescent, side channel, partial curve], Cc1ccsc1/C=N/n1c(-c2ccco2)n[nH]c1=S 39.8 µM [inhibitor, single point], Cc1ccc(C(=O)Nc2ccc(N3CCN(S(C)(=O)=O)CC3)cc2)cc1 31.6 µM [quencher, side channel, single point], O=Nc1c(-c2ccccc2)[nH]n(-c2ccccc2)c1=O 25.1 µM [quencher, side channel, partial curve], O=C(/C=C\c1ccccc1[N+](=O)[O-])Nc1ccccc1 20 µM [quencher, side channel, partial curve], CCCOc1ccc(NC(=O)CC2C(=O)N(C)C(=S)N2Cc2ccc3c(c2)OCO3)cc1 (stereo not given) 17.8 µM [quencher, side channel, partial curve], CC(O)C(NS(=O)(=O)c1ccc(Cl)cc1)C(=O)OCC(=O)c1c[nH]c2ccccc12 (stereo not given) 31.6 µM [quencher, side channel, partial curve]
